Source: paper PMC4336329 (PLoS ONE, 2015)
About 2,200 (0.71%) of roughly 310,000 compounds showed an effect of 50% or more. Effects have a minus sign here. The list shows a part of the results.

molecular target: human ether-à-go-go-related gene (hERG) potassium channel (human, UniProt Q12809); experiment: primary screen, population patch clamp on CHO cells stably expressing hERG
Sequence (Q12809 whole entry, looked up): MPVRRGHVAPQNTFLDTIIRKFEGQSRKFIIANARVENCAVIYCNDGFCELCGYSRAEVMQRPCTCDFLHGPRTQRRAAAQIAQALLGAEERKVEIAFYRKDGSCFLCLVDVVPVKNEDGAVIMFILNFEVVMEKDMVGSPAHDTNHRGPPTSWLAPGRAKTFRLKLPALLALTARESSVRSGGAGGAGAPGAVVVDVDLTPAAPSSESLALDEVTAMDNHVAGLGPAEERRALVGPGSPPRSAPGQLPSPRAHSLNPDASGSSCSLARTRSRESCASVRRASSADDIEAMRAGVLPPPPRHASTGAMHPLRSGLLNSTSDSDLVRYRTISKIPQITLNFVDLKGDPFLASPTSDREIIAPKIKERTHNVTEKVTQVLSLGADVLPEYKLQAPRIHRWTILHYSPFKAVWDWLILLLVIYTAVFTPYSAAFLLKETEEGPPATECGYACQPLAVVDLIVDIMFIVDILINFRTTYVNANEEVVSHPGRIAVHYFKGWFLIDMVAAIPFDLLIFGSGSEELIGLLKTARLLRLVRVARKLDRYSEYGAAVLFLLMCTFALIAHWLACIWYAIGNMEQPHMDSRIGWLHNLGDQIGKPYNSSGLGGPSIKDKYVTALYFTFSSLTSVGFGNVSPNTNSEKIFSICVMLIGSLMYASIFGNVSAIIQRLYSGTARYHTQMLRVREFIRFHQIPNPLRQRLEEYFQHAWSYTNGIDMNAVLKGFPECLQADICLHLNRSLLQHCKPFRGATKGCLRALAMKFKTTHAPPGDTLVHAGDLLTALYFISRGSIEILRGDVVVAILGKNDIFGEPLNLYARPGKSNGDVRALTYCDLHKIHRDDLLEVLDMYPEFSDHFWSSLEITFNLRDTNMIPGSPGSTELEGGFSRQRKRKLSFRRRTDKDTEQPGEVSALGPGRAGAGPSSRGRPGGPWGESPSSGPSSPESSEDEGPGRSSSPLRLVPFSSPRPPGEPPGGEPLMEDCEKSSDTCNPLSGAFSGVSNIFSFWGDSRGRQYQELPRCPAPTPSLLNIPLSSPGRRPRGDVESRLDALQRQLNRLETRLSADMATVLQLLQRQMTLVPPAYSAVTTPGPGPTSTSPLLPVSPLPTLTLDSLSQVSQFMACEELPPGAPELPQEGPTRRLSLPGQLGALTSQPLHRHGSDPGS

Row | SMILES | hERG current change (%, negative = inhibition) at 1uM [%]
1 | CCc1nn(CC(=O)NCCc2ccc(Cl)cc2)c(=O)c2cccn12 | 0.907
2 | COc1cccc(/C=N/NC(=O)c2ccc(=O)n(C)c2)c1OC | 16.6
3 | Nc1c(Cl)c(Cl)nc(C(=O)OCC(=O)NCc2ccccc2)c1Cl | 10.7
4 | C=CCN=Cc1sc2ccc(OCC)cc2c1O | 14.9
5 | O=C(CCNS(=O)(=O)c1cccc2nonc12)Nc1ccc(Cl)cc1 | 10.1
6 | O=C(NCc1ccc(F)cc1)C(=O)Nc1nc(C23CC4CC(CC(C4)C2)C3)cs1 | 8.67
7 | CNC(=S)N(Cc1ccc2c(c1)OCO2)C1CC(=O)N(c2ccccc2)C1=O (stereo not drawn) | 3.61
8 | COC(C)(C)[C@]12CC(O)(C(C)C)ON1[C@H]1CCCCC1N2O (stereo partly drawn) | 14.2
9 | Oc1ccc(-c2nc3ncccn3c2Nc2ccc3c(c2)OCCO3)cc1 | -0.353
10 | Cc1csc2nc(CSc3nc4ccccc4o3)c(Br)n12 | 15.9
11 | Cc1cc(C)c(C)c(C(=O)C2OC(=O)C(C)(C)C(=O)C2(C)C)c1C (stereo not drawn) | 7.42
12 | Oc1ccc(Br)cc1-c1cc(-c2ccccc2Cl)[nH]n1 | 12.4
13 | O=C1Nc2ccccc2C1Cc1ccccn1 (stereo not drawn) | 11.5
14 | Cc1nc2ccc3nc(NC(=O)c4ccc(S(=O)(=O)N5CCOCC5)cc4)sc3c2s1 | 5.54
15 | CC(Oc1c(Cl)cccc1Cl)C1=NCCN1.Cl (stereo not drawn) | 10.4
16 | O=C(c1cc2nc(-c3ccco3)cc(C(F)(F)F)n2n1)N1CCN(c2ccccn2)CC1 | 2.13
17 | Nc1ccccc1NC1=CC(=O)CC(c2ccccc2)C1 (stereo not drawn) | 6.33
18 | CCC(C(=O)OCC(=O)N(C)c1c(N)n(Cc2ccccc2)c(=O)[nH]c1=O)c1ccccc1 (stereo not drawn) | 15.6
19 | C=CCn1c(SCC(=O)N2CCCCC2)nnc1-c1ccncc1 | 5.93
20 | CCc1ccc(N(C(=O)c2snc(C(N)=O)c2N)C(C(=O)NCC2CCCO2)c2ccco2)cc1 (stereo not drawn) | 5.88
21 | CCOC(=O)C1CCCN(S(=O)(=O)c2cc(Br)cc3c2N(C(=O)CC)CC3)C1 (stereo not drawn) | 12
22 | Cc1nc(-c2ccccc2)nc2[nH]c(-c3ccccc3)cc(=O)c12 | -1.19
23 | CCN1CCc2c(OCc3ccc(C)cc3)cccc2C1=O | 1.27
24 | COCCN(CCOC)S(=O)(=O)c1ccc(OC)cc1 | 14.9
25 | CCn1cc(CN2CCC(C(=O)Nc3ccc(Oc4cccnc4)cc3)CC2)c(C)n1 | 4.08
26 | Cc1occc1C(=O)N1CCN(c2ccc([N+](=O)[O-])cc2)CC1 | -45.8
27 | O=C(Cc1ccccc1)c1nnc(-c2ccccc2)o1 | 13.5

Row | SMILES | hERG current change (%, negative = inhibition) at 1uM [%]
28 | CCc1cc(=O)oc2cc(C)cc(OCC(=O)NC3CC3)c12 | 7.02
29 | O=C(NCCc1ccccc1)c1ccc(CS(=O)(=O)Cc2ccccc2F)o1 | -7.19
30 | CCO[C@@H]1OC(C(=O)N2CCN(Cc3ccccc3)CC2)=C[C@H](c2csc3ccccc23)[C@H]1CCCO | 8.19
31 | COc1ccc(CCN2CC(O)=C(c3nc4ccccc4c(=O)[nH]3)C2=N)cc1OC | 6.05
32 | CCN(c1ccccc1)S(=O)(=O)c1cc(C(=O)NCc2ccco2)ccc1C | 7.99
33 | O=C(Nc1cccc(Cl)c1)N(Cc1nc2ccccc2c(=O)[nH]1)Cc1cccs1 | 0.998
34 | Cc1cc(C)c2c(N)c(C(=O)Nc3nccs3)sc2n1 | 13
35 | COc1ccc(S(=O)(=O)ON=C2CC(C)(C)N(C(C)=O)C(C)(C)C2)cc1 | 19.5
36 | Cc1cc([N+](=O)[O-])ccc1NC(=O)COc1nsnc1N1CCOCC1 | -7.59
37 | O=P(COCCO)(c1ccccc1)c1ccccc1 | 3.27
38 | CN1C(=O)/C(=C/c2ccccc2Cl)Sc2ccc(C(=O)N3CCCC3)cc21 | 8.85
39 | Cc1cc(=O)n(CC(C)C)c(O)c1C#N | 17.5
40 | CC(=O)c1ccc(OC(=O)/C=C/c2ccccc2)cc1 | 12
41 | Clc1cc2c(cc1/C=N/Nc1nc(N3CCOCC3)nc(N3CCOCC3)n1)OCO2 | 12.5
42 | O=C(CNS(=O)(=O)c1ccccc1)NCc1cccnc1 | 10.5
43 | Nc1c(Cl)cc(C(=O)c2c3ccc([N+](=O)[O-])cc3[n+]([O-])n2CCC[NH3+])cc1Cl.O=C([O-])C(F)(F)F | 1.56
44 | COc1cccc(CC(=O)N(CCC2=CCCCC2)c2c(N)n(Cc3ccccc3)c(=O)[nH]c2=O)c1 | 15.1
45 | CC1CC(C)CN(C(=O)c2ccc(CNc3c(N4CCCC4)c(=O)c3=O)cc2)C1 (stereo not drawn) | 19.7
46 | O=C(NCc1ccc(N2CCCC2=O)cc1)NC1CCCCC1 | 5.68
47 | Cc1ccc(S(=O)(=O)Nc2nc(C)c(C(=O)NN)s2)cc1 | 6.68
48 | O=c1cc(-c2ccccc2)nc2c(-c3ccccc3)c(C(F)(F)F)[nH]n12 | 9.52
49 | Clc1cnc(Oc2ccc(Oc3ncc(Cl)cc3Cl)cc2)c(Cl)c1 | 11.7
50 | COC(=O)c1c(Sc2ccccc2)c2ccccc2n1C | 10.1
51 | CCN1CCN(c2ccc(S(=O)(=O)N3CCCCC3)cc2NC(=O)/C=C/c2cccc(OC)c2OC)CC1 | 6.17
52 | CCOc1ccc(CCNC(=O)COC(=O)c2cccnc2Cl)cc1OCC | 17.2
53 | Cc1onc(-c2ccccc2)c1C(=O)N1CCN(c2ccc([N+](=O)[O-])cc2)CC1 | -17.4
54 | C[C@@H](NC(=O)C1(c2ccccc2)CCN(C(=O)OC(C)(C)C)CC1)C(=O)N[C@@H](C(=O)O)c1ccccc1 | 10.9
